Test results published in PubChem BioAssay AID651661 (Broad Institute, 2012).
Among all 350,000 compounds or so, about 2,300 (0.66%) were called active. Inconclusive means that the source gave no clear call. Such entries were picked first, then a sample of the others.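 Rule for the calls: active = mean inhibition of at least 50% after viability correction, with every replicate also passing that limit; inconclusive = mean reaches 50% but only one of two replicates passes; inactive = the rest.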

Assay: blockers of EWS/Fli transcriptional output – A673 cells, NR0B1 luciferase, luminescence, MLPCN library, primary screen (AID 651661);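 note: firefly luciferase signal divided by Alamar Blue viability fluorescence both relative to DMSO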
Settings: A673 NR0B1-luciferase reporter, viability-normalised; at 12.6 µM; active compounds read high

Row | SMILES | inhibition
1 | C[C@@H]1CN([C@H](C)CO)C(=O)c2cccc(NC(=O)c3cnccn3)c2O[C@@H]1CN(C)Cc1ccc(C(=O)Nc2ccccc2N)cc1 | inconclusive: 60.6%
2 | CCOC(=O)c1cc(C#N)c(=S)[nH]c1C | inconclusive: 52.8%
3 | O=C(NCC(c1ccco1)N1CCc2ccccc21)C(=O)Nc1ccc(F)cc1F (stereo unspecified) | active: 57.6%
4 | Cc1ccc(C2=NNC(c3cccc(F)c3)S2)cc1 (stereo unspecified) | inconclusive: 54.7%
5 | CC(=O)Nc1cc(C(=O)NCc2ccco2)ccc1Sc1ccc(F)cc1 | active: 85%
6 | Cc1ccc(S(=O)(=O)N2CCOCC2)cc1NC(=O)COC(=O)c1ccc(Cl)nc1 | inactive: 2.39%
7 | C/C(=N\N=C(N)N)c1cc(Cl)ccc1Cl | inactive: 7.99%
8 | CCNC(=O)C[C@H]1CC[C@@H]2[C@H](COc3ccc(NC(=O)C4CCCCC4)cc3C(=O)N2C)O1 | inactive: -1.44%
9 | Oc1ccc(C[C@H]2CNC(=S)N2CC2CCCN2C[C@H](Cc2ccccc2)N2C[C@H](Cc3ccc(O)cc3)N(CCc3ccccc3)C2=S)cc1 (stereo partly specified) | inactive: 18.7%
10 | O=C(Nc1cccn(Cc2c(F)cccc2Cl)c1=O)NC1CCCCC1 | inconclusive: 51.5%
11 | C[C@@H]1CN([C@@H](C)CO)C(=O)c2cc(Br)cnc2O[C@H]1CN(C)C(=O)c1ccccc1 | inactive: -7.04%
12 | O=C(Nc1ccc(O)c(-c2nc3ccccc3o2)c1)C1(c2ccccc2)CCCC1 | inconclusive: 50.9%
13 | C[C@@H]1CCCCO[C@H](CN(C)Cc2ccncc2)[C@H](C)CN([C@@H](C)CO)C(=O)c2cc(NC(=O)C3CCCCC3)ccc2O1 | inconclusive: 50.9%
14 | Cc1ccccc1-c1nc(-c2ccccn2)no1 | active: 83%
15 | CC1=C(/C=C/C(C)=C/C=C/C(C)=C/C(=O)Nc2ccc(O)cc2)C(C)(C)CCC1 | inconclusive: 53.3%
16 | CC[C@]12CCCN3CCc4c(n(c5ccccc45)C(=O)C1)[C@@H]32 | inconclusive: 50.1%
17 | CSC(SC)=C(C#N)C(=O)c1ccccc1 | inconclusive: 53.1%
18 | CCOc1ccc(N=Nc2ccc(O)c3ncccc23)cc1 | active: 57.8%
19 | CC(C)c1ccccc1NC(=O)COC(=O)CCN1C(=O)/C(=C\C=C\c2ccccc2)SC1=S | active: 62.1%
20 | N#C/C(=C\c1ccccc1C(F)(F)F)C(=O)Nc1ccccc1 | inactive: 11.7%
21 | CCCNC(=O)N(C)C[C@@H]1Oc2cc(-c3ccc(C)cc3)ccc2S(=O)(=O)N([C@@H](C)CO)C[C@@H]1C | inactive: 18.9%
22 | CN(C)CC(=O)N1[C@@H]2c3ccc(C4=CCCC4)c(=O)n3C[C@H]1[C@H](CO)[C@H]2C(=O)NCC1CCCCC1 | inconclusive: 51%
23 | CN(C)CCN1C(=O)c2cccc3cc([N+](=O)[O-])cc(c23)C1=O | inconclusive: 51.9%
24 | O=C(CCl)Nc1cccc(S(=O)(=O)NC2=NCCCCC2)c1 | active: 61.7%
25 | COc1cccc(NC(=O)n2ncc3c(C)cccc32)c1 | inconclusive: 55.2%
26 | Cc1ccc(C(C)C)c(OCC(=O)Nc2ccc3c(c2)nc(CCN2CCCCC2)n3C)c1 | inconclusive: 53.9%

Row | SMILES | inhibition
27 | O=C(C[C@@H]1C=C[C@H](NC(=O)Nc2ccc(C(F)(F)F)cc2)[C@@H](CO)O1)NCc1ccccn1 | inactive: -14.8%
28 | O=C(CCCN1C(=O)/C(=C/c2ccccc2Cl)SC1=S)NNC(=O)c1ccncc1 | inconclusive: 50.8%
29 | CCN1/C(=C/c2ccc3cc(C)ccc3[n+]2CC)Sc2cc(C)c(C)cc21 | active: 72.7%
30 | O=S(=O)(c1ccccc1F)N1CC[C@@H]2[C@@H](CO)Nc3ccc(-c4ccc(F)cc4)cc3[C@@H]21 | inconclusive: 52%
31 | O=C1C(Cl)=C(NCc2cccnc2)C(=O)c2ccccc21 | active: 58.5%
32 | CN1C[C@H]2[C@@H](c3ccccc31)[C@@H](CO)N2C(=O)C1CCCCC1 | inactive: -8.06%
33 | C=CCSc1nc2ccccc2n1C(=O)/C=C/c1ccc(OC)c(OC)c1 | inconclusive: 50.7%
34 | O=C1C=CCCN1C(=O)/C=C/c1cccc(Br)c1 | active: 64.3%
35 | COc1ccccc1/C=C/C1(C(=O)NC2CCCC2)CC(=O)N1c1ccccc1 (stereo unspecified) | inconclusive: 54.5%
36 | Cc1cccc(NC(=O)CCc2ccc(N3C(N)=NC(N)=NC3(C)C)cc2)c1 | inconclusive: 57.2%
37 | Cc1noc(C)c1S(=O)(=O)Nc1ccc2c(c1)C(=O)N([C@@H](C)CO)C[C@@H](C)[C@H](CN(C)C(=O)c1ccncc1)OCCCC[C@H](C)O2 | inactive: -7.51%
38 | Cc1ccnc(NC(=O)c2cc3ccccc3o2)c1 | active: 74.7%
39 | COc1ccccc1NC(=O)c1ccc(C(=O)c2ccccc2)o1 | inactive: -4.48%
40 | O=[N+]([O-])c1cnc(Sc2ccncn2)s1 | inconclusive: 51.6%
41 | Cc1c(NC(=O)c2cccc(NC(=O)COc3ccccc3C#N)c2)c(=O)n(-c2ccccc2)n1C | inconclusive: 54.3%
42 | O=C(Nc1cccc2ccccc12)NC1Cc2ccccc2C1 | inactive: -4.4%
43 | CCN1CCN(c2cc(C)c3cc(NC(=S)NCc4cccs4)ccc3n2)CC1 | inactive: -1.72%
44 | CCC(CO)[n+]1c(C)cc(/C=C2\Sc3ccccc3N2Cc2ccccc2)cc1C (stereo unspecified) | inconclusive: 50.7%
45 | O=C(Nc1cccc(C(=O)O)c1)Nc1ccccc1Cl | inconclusive: 50.1%
46 | COc1cccc(C=Nc2ccc(N3CCOCC3)cc2)c1O | inactive: 16.1%
47 | CCc1ccc(OCC(=O)NC(=S)Nc2ccc(C(C)=O)cc2)c(Br)c1 | inactive: 8.47%
48 | COC(=O)C(CC#Cc1ccc2c(c1)[C@]1(C(=O)N2)[C@H](C(=O)N2CCN(c3ncccn3)CC2)[C@H]2C(=O)O[C@H](c3ccccc3)[C@H](c3ccccc3)N2[C@@H]1c1ccc(OCCO)cc1)C(=O)OC | inconclusive: 51.5%
49 | CC(=O)c1ccc2c(c1)CC1(C2)Cc2cc3c(cc2C1)C(=O)CC3 (stereo unspecified) | inconclusive: 51.1%
50 | Cc1ccc(S(=O)(=O)N(Cc2cc3ccccc3[nH]c2=O)c2cccc(C)c2)cc1 | inconclusive: 50.3%
51 | CCOC(=O)c1sc(N(Cc2ccccc2)C(=O)CCl)nc1C | active: 56.9%
52 | Cc1ccc(C(C[N+](=O)[O-])Sc2ccc(N)cc2)cc1 (stereo unspecified) | inconclusive: 61.6%

Row | SMILES | inhibition
53 | COc1ccccc1CNC(=O)CC1C(=O)NCCN1C1Cc2ccccc2C1 (stereo unspecified) | inactive: 1.73%
54 | c1ccc(-c2noc(-c3ccc4c(c3)OCO4)n2)cc1 | inconclusive: 50.5%
55 | C[C@H]1CN([C@@H](C)CO)C(=O)Cc2cc(NC(=O)NC3CCCCC3)ccc2O[C@H]1CN(C)S(=O)(=O)c1ccc(F)cc1 | inconclusive: 55.4%
56 | CC1(C)CC[C@]2(C(=O)O)CC[C@]3(C)C(=CC[C@@H]4[C@@]5(C)CC[C@H](O[C@@H]6O[C@H](C(=O)O)[C@@H](O)[C@H](O[C@@H]7OC[C@H](O)[C@H](O)[C@H]7O)[C@H]6O)C(C)(C)[C@@H]5CC[C@]43C)[C@@H]2C1 | inconclusive: 50%
57 | COc1ccc(CN(C)C[C@H]2OCCCC[C@@H](C)Oc3ccc(NS(=O)(=O)c4cn(C)cn4)cc3C(=O)N([C@H](C)CO)C[C@@H]2C)cc1 | inactive: -15.8%
58 | O=C(C[C@H]1CC[C@@H](NC(=O)C2CC2)[C@@H](CO)O1)NCC1CC1 | inactive: 3.87%
59 | Cn1ccc2c(-c3cccc(C=O)c3F)cc3c(c21)C1CCC3C1 (stereo unspecified) | inactive: -7.29%
60 | CC(C)N1CCc2c(sc(NC(=O)c3cc4cc([N+](=O)[O-])ccc4s3)c2C(N)=O)C1 | inconclusive: 53%
61 | COc1ccc(CN(C)C[C@H]2OCCCC[C@@H](C)Oc3ccc(NC(=O)Nc4cccc5ccccc45)cc3C(=O)N([C@@H](C)CO)C[C@H]2C)cc1 | inconclusive: 50.3%
62 | CCCCCCCSc1nnc(-c2ccccc2N)c(=O)[nH]1 | active: 55.9%
63 | C[C@@H]1CCCCO[C@@H](CN(C)S(=O)(=O)c2ccc(Cl)cc2)[C@H](C)CN([C@H](C)CO)C(=O)c2cc(NC(=O)Nc3ccc(F)cc3)ccc2O1 | inconclusive: 52.8%
64 | Cc1ccc2nc(NC(=O)CSCC(=O)Nc3cc(C)on3)sc2c1 | inconclusive: 51.6%
65 | O=C(CCl)Nc1cc2[nH]c(=O)[nH]c2cc1Br | inconclusive: 56.4%
66 | COc1ccc(NC(=O)N(C)C[C@H]2Oc3ccc(NC(=O)Nc4ccc(C(F)(F)F)cc4)cc3CC(=O)N([C@@H](C)CO)C[C@H]2C)cc1 | inconclusive: 53.7%
67 | CCS(=O)(=O)N1CC2(C1)CN(S(=O)(=O)c1cccc(OC)c1)[C@H](CO)c1[nH]c3cc(OC)ccc3c12 | inactive: 10.4%
68 | O=C(Nc1ccc(OCc2ccccc2Cl)cc1)c1cccnc1 | inconclusive: 61.5%
69 | Cc1nc2cc(-c3ccc(Cl)cc3)nn2c(C)c1CCC(=O)NC(C)c1ccc2c(c1)OCCO2 (stereo unspecified) | active: 56.6%
70 | Cc1ccc(C(=O)c2cc([N+](=O)[O-])ccc2N2CC(C)OC(C)C2)cc1 (stereo unspecified) | inconclusive: 52.4%
71 | O=C(Nc1ccc2oc(=O)ccc2c1)c1ccc(-c2cccc([N+](=O)[O-])c2)o1 | inconclusive: 62.1%
72 | CC(C)NC(=O)c1cc(-c2cccs2)nc2ccccc12 | inactive: 1.85%
73 | COc1ccc(C(=O)N[C@H](C(=O)Nc2nc3ccccc3[nH]2)C(C)C)cc1 | inconclusive: 53.5%
74 | C[C@@H]1CCCCO[C@@H](CN(C)C)[C@H](C)CN([C@@H](C)CO)C(=O)c2cc(NC(=O)NC3CCCCC3)ccc2O1 | inactive: 5.69%
75 | CN(Cc1cccc(Cl)c1Cl)C(=O)c1ccc(NC(=O)CC#N)cc1 | inconclusive: 52.1%
76 | Cc1c(C#N)c(NC(=O)CCl)n(Cc2cccs2)c1C | inconclusive: 50.5%
